In the supplement of paper PMC8285479:
Structures can show the parent of a compound that is named as a salt. ± gives the standard deviation of the averaged measurements. In all, about 1,900 compounds were measured (“normalised cell viability (NPI; 0 = phenylarsine oxide control, 1 = DMSO control)”: median about 1, lowest 2% from about 0.039 on). The list shows a part of the results.

System: NCI-H1944
Assay: normalised cell viability (NPI; 0 = phenylarsine oxide control, 1 = DMSO control) (fraction of DMSO control); NCI-H1944 is a non-small cell lung cancer line; higher = more viable cells (less compound toxicity)
Settings: 6 days
[1] = glucocorticoid arm: hydrocortisone 2.75 uM co-treatment, compound 1 µM
[2] = glucocorticoid arm: hydrocortisone 2.75 uM co-treatment, compound 5 µM
[3] = glucocorticoid arm: hydrocortisone 2.75 uM pre-treated 2 days and continued, compound 1 µM
[4] = glucocorticoid arm: hydrocortisone 2.75 uM pre-treated 2 days and continued, compound 5 µM
[5] = glucocorticoid arm: vehicle, compound 1 µM
[6] = glucocorticoid arm: vehicle, compound 5 µM
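Further: CTB read-out in 384-well plates, mean of triplicate wells, normalised per plate against 1 µM phenylarsine oxide and 0.1% DMSO, compounds added 24 h after seeding.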

SMILES	normalised cell viability [1]	normalised cell viability [2]	normalised cell viability [3]	normalised cell viability [4]	normalised cell viability [5]	normalised cell viability [6]
COc1cc2nccc(Oc3ccc(NC(=O)NC4CC4)c(Cl)c3)c2cc1C(N)=O [E7080 (Lenvatinib)]	0.96 ± 0.012	0.951 ± 0.031	0.945 ± 0.011	0.9333 ± 0.009	1.007 ± 0.0058	1 ± 0.016
c1nc2c(NC3CCCCC3)nc(Nc3ccc(N4CCOCC4)cc3)nc2[nH]1 [Reversine]	0.864 ± 0.027	0.508 ± 0.0076	0.92 ± 0.01	0.586 ± 0.017	0.33 ± 0.022	0.201 ± 0.022
CCn1c(=O)[nH]c2cc(Cl)c(Cl)cc21	0.9863 ± 0.0055	0.97 ± 0.02	0.972 ± 0.04	0.954 ± 0.012	0.9877 ± 0.0015	0.988 ± 0.0044
Cc1cc(NC(=O)Nc2ccc3c(ccn3C)c2)sn1	1.017 ± 0.0058	0.995 ± 0.013	1.003 ± 0.0058	1.01 ± 0.015	0.9797 ± 0.0021	0.993 ± 0.0061
COC(=O)[C@H](NC(=O)c1cc(-c2ccccc2)nc2ccccc12)c1ccccc1	1 ± 0.016	1.02 ± 0.011	1.013 ± 0.0058	1.03	0.999 ± 0.0017	1.01
N#Cc1cc2nc(O)c(O)nc2cc1[N+](=O)[O-] [CNQX disodium]	0.995 ± 0.018	0.983 ± 0.02	1.002 ± 0.0072	1 ± 0.016	0.994 ± 0.0053	0.9973 ± 0.0015
CN(C)C(N)=NCCC[C@H](N)C(=O)O [N^G,N^G-Dimethylarginine dihydrochloride]	0.99967 ± 0.00058	0.998 ± 0.013	1 ± 0.02	1 ± 0.011	1.003 ± 0.0058	1 ± 0.0095
C[C@@H](CN1CCC(Cc2ccccc2)CC1)[C@@H](O)c1ccc(O)cc1 [Ro 25-6981 hydrochloride]	0.9373 ± 0.0078	1.13 ± 0.059	1.01 ± 0.02	1.14 ± 0.017	1.003 ± 0.0058	0.8997 ± 0.006
CNc1nc(Nc2cn(C(C)(C)C#N)nc2C)ncc1C(F)(F)F	1.01 ± 0.011	1.02 ± 0.026	1.02	1.03 ± 0.011	1	1.01 ± 0.013
N[C@@H](CS(=O)O)C(=O)O [L-Cysteinesulfinic Acid]	1.001 ± 0.009	0.987 ± 0.024	0.984 ± 0.014	0.99 ± 0.011	0.9693 ± 0.0051	0.985 ± 0.001
COCCCN1CCC(NC(=O)c2cc(Cl)c(N)c3c2OCC3)CC1 [Prucalopride]	1.03 ± 0.011	1.02 ± 0.01	1.02 ± 0.023	1.02 ± 0.022	1.003 ± 0.0061	0.997 ± 0.0052
O=C(Cc1ccc(Cl)c(Cl)c1)OCCN1CCCC1 [AC 915 oxalate]	0.991 ± 0.013	1.013 ± 0.0058	0.9883 ± 0.0087	0.991 ± 0.028	0.986 ± 0.013	0.98 ± 0.006
Cc1cc(CN2CCN(c3c(Br)cnc4nc(-c5ccc(N6CCN(C)CC6)cc5)[nH]c34)CC2)no1	0.9427 ± 0.0094	0.868 ± 0.014	0.978 ± 0.029	0.994 ± 0.018	0.679 ± 0.1	0.371 ± 0.04
Cc1ccc(=O)n(-c2ccccc2)c1 [Pirfenidone]	0.989 ± 0.004	0.956 ± 0.02	1.001 ± 0.009	1.02 ± 0.071	0.9853 ± 0.0038	0.998 ± 0.012
NO [Hydroxylamine hydrochloride]	1.001 ± 0.009	0.993 ± 0.0061	0.9997 ± 0.0096	0.992 ± 0.031	1.007 ± 0.0058	1.01
Nc1nc(Cl)nc2c1ncn2[C@@H]1O[C@H](CO)[C@@H](O)[C@H]1O [2-Chloroadenosine]	0.998 ± 0.013	0.982 ± 0.011	0.998 ± 0.011	0.974 ± 0.052	0.9847 ± 0.0078	0.9883 ± 0.0078
O=c1[nH]c2ccccc2n1CCCN1CCN(C(c2ccccc2)c2ccccc2)CC1 [Oxatomide]	1.003 ± 0.0058	0.998 ± 0.06	1.01 ± 0.015	1.05 ± 0.067	1.013 ± 0.0058	1.023 ± 0.0058
Nc1cc(Cl)c(NC2=NCCN2)c(Cl)c1 [p-Aminoclonidine hydrochloride]	0.9767 ± 0.004	0.9917 ± 0.0085	0.978 ± 0.0095	0.978 ± 0.028	0.9917 ± 0.0072	0.987 ± 0.0017
C[N+](C)(C)CC(=O)O [Betaine hydrochloride]	1.013 ± 0.0058	1.02 ± 0.011	1.01	0.9845 ± 0.00071	0.9727 ± 0.0061	0.9897 ± 0.0055
CC[C@H](CO)Nc1nc(NCc2ccccc2)c2ncn(C(C)C)c2n1 [Roscovitine]	0.999 ± 0.001	0.957 ± 0.021	1.03 ± 0.029	1.06 ± 0.015	1 ± 0.01	0.9457 ± 0.0031
OCCN(CCO)c1nc(N2CCCCC2)c2nc(N(CCO)CCO)nc(N3CCCCC3)c2n1 [Dipyridamole]	1.006 ± 0.0075	0.987 ± 0.02	1.01	1 ± 0.011	0.9933 ± 0.004	1.01
Cc1ccc(NC(=O)c2cccc(C(C)(C)C#N)c2)cc1Nc1ccc2ncn(C)c(=O)c2c1	0.727 ± 0.064	0.58 ± 0.032	0.775 ± 0.016	0.678 ± 0.051	0.9443 ± 0.0058	0.685 ± 0.037
CN1CCN(C(c2ccccc2)c2ccccc2)CC1 [Cyclizine 2HCl]	1.027 ± 0.0058	0.987 ± 0.012	1.03 ± 0.021	0.987 ± 0.038	1	0.9917 ± 0.0061
Cc1ccc(F)c(NC(=O)Nc2ccc(-c3cccc4[nH]nc(N)c34)cc2)c1 [Linifanib (ABT-869)]	1.02 ± 0.011	0.995 ± 0.015	1.033 ± 0.0058	1.01 ± 0.02	1.003 ± 0.0058	0.9947 ± 0.0021
CNC[C@H](O)c1ccc(O)c(O)c1 [Epinephrine Bitartrate]	1 ± 0.0084	0.973 ± 0.012	1 ± 0.011	1.002 ± 0.0076	0.989 ± 0.011	1 ± 0.013
CNC[C@H](O)c1ccc(O)c(O)c1 [Epinephrine HCl]	1.02 ± 0.011	1.02 ± 0.015	1.017 ± 0.0058	1.017 ± 0.0058	1.003 ± 0.0058	0.993 ± 0.011
